Measured values: PMC7819943, “Rice protein-binding microarrays: a tool to detect cis-acting elements near promoter regions in rice”
The list shows a part of the results.

Target: T1, OsWOX13 (Oryza sativa, UniProt Q5QMM3 1-267)
T1 sequence: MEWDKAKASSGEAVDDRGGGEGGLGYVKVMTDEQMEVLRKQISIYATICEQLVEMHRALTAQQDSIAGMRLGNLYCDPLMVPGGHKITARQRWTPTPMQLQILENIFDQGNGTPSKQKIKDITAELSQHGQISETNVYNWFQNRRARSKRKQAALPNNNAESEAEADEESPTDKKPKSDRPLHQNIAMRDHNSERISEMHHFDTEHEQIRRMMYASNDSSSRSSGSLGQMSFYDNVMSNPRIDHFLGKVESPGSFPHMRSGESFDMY
Assay: protein-binding microarray (RPBM); PBS, 2% BSA, 51.3 ng/ul salmon testes DNA, 50 uM zinc acetate, 200 nM TF, 25 C, 1 h; high values mean tight binding
Conditions: protein: recombinant; tags: N-terminal polyhistidine and DsRed monomer fusion (pET32a); label: CyDye5-dUTP incorporated in the synthesized complementary strand; 3' TTTTT single-stranded linker to array surface; dsDNA, one strand shown
Procedure, shortened: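 Transcription factors were each fused at the N-terminus to a polyhistidine tag plus DsRed and expressed in E. coli BL21-CodonPlus before Ni–NTA purification. Binding to a double-stranded custom Agilent array was carried out with 200 nM protein at 25 °C for 1 h in PBS, 2% BSA, salmon testes DNA and 50 µM zinc acetate. The binding signal is per-feature fluorescence intensity, in arbitrary units, on an Axon 4000B scanner.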

How did the binding signal turn out when “TCGACACCTCGTCAAGGGGCAATCACACTCCGTGACGACTCGGAGTCACCTAGTGCAG” was run?
Its binding signal is 5830 fluorescence intensity (a.u.).

With “CCATTTAGATTATTAAAAGTGACATCGTTCGATTCGTCCTCGGAGTCACCTAGTGCAG” as the sequence, how does the binding signal read?
The binding signal was 9560 fluorescence intensity (a.u.).

Which binding signal does the source give for “TTTTAATTGTACATTGTAATATTATTCATAGAATCAACATCGGAGTCACCTAGTGCAG” here?
Its binding signal is 9230 fluorescence intensity (a.u.).

For “CCTCATTGTCAATCAATGTTTTGGCTATCATCCTCGATGCCGGAGTCACCTAGTGCAG”, which binding signal is on record?
Its binding signal is 41800 fluorescence intensity (a.u.).

Which binding signal does the source give for “GTAAATTGATTTGTATATGGCCATTTCCAACCCAAAACACCGGAGTCACCTAGTGCAG” here?
The binding signal was 56300 fluorescence intensity (a.u.).

How did the binding signal turn out when “ATTAATTAACAATAATAAGTGATTAATAATTAATTAATCGCGGAGTCACCTAGTGCAG” was run?
Its binding signal is 44200 fluorescence intensity (a.u.).

For “TATCTAATAATAACAATCAAACGTTAGACATACAAACTCACGGAGTCACCTAGTGCAG”, which binding signal is on record?
Its binding signal is 6350 fluorescence intensity (a.u.).

How did the binding signal turn out when “TTTTGACATCACCAAATTTAAATAAGACAACAAACTAATTCGGAGTCACCTAGTGCAG” was run?
The binding signal was 5110 fluorescence intensity (a.u.).

“CGTTACATCATTTTAATTTCAATCAAACTTCCAATTTTAACGGAGTCACCTAGTGCAG” was tested. Which binding signal did it give?
Its binding signal is 13300 fluorescence intensity (a.u.).

“ATATAGTTTAATGTCATAAGATAACTTAGGATAAACGTGGCGGAGTCACCTAGTGCAG” was tested. Which binding signal did it give?
The binding signal was 3810 fluorescence intensity (a.u.).

For “TAACAAATTAAATTGAAAATAGTTATCGTACATTCACAATCGGAGTCACCTAGTGCAG”, which binding signal is on record?
Its binding signal is 9910 fluorescence intensity (a.u.).

“TATAAAATTTGTCCTAATGAATTTTCCTACTACAGTTTTACGGAGTCACCTAGTGCAG” was tested. Which binding signal did it give?
Its binding signal is 3570 fluorescence intensity (a.u.).

“GTTGATGTGATGGAAAATGACTGAAGATTGGATCTAAACTCGGAGTCACCTAGTGCAG” was tested. Which binding signal did it give?
Its binding signal is 31100 fluorescence intensity (a.u.).

How did the binding signal turn out when “CTAAAATTTGCTGCTCTCTCCAGTTCCTTCACTTCTTCAACGGAGTCACCTAGTGCAG” was run?
Its binding signal is 4030 fluorescence intensity (a.u.).

For “AATTAACTGTTAACTGCACCCATCAGTAACAAAATAACGCCGGAGTCACCTAGTGCAG”, which binding signal is on record?
The binding signal was 22900 fluorescence intensity (a.u.).

With “AGGGTGATAGAGAGAGAGAGATTCAGATCCACCCGCGTCTCGGAGTCACCTAGTGCAG” as the sequence, how does the binding signal read?
Its binding signal is 3530 fluorescence intensity (a.u.).

For “TAAGATAAATTGCAGAAAACTTCAACTGTTTTGTCCAAACCGGAGTCACCTAGTGCAG”, which binding signal is on record?
Its binding signal is 3540 fluorescence intensity (a.u.).

For “GGTGACACTTAATTAGGATGGCTAGTAATATTGCAGTCGTCGGAGTCACCTAGTGCAG”, which binding signal is on record?
The binding signal was 17800 fluorescence intensity (a.u.).

Which binding signal does the source give for “AGAAGTTGATTTGGGGTTGCGCTATATCTATTAAAGAGTACGGAGTCACCTAGTGCAG” here?
Its binding signal is 7340 fluorescence intensity (a.u.).

“GGTTGTTAGCACATGATTAATTGTATTAAAACAACTTAAACGGAGTCACCTAGTGCAG” was tested. Which binding signal did it give?
Its binding signal is 3580 fluorescence intensity (a.u.).

“AAGTGATTGACCGGATTATTACTGAGGGGAATATGCTCGGCGGAGTCACCTAGTGCAG” was tested. Which binding signal did it give?
The binding signal was 47800 fluorescence intensity (a.u.).

With “GTTACAATTACACATGATTTAATTGGCCCTACCATATTCTCGGAGTCACCTAGTGCAG” as the sequence, how does the binding signal read?
Its binding signal is 49400 fluorescence intensity (a.u.).

“TCTTAATGTAGAAATTGAATTTCCTTCTAAAAGAAATCAGCGGAGTCACCTAGTGCAG” was tested. Which binding signal did it give?
The binding signal was 12100 fluorescence intensity (a.u.).

Which binding signal does the source give for “ACAGCTGACGAATTGATGTATTGCATCAGGCCCTCTTCAACGGAGTCACCTAGTGCAG” here?
The binding signal was 4780 fluorescence intensity (a.u.).

“ATTTGATGCCACTTTTAATTTACTTTCCCATTTTAATGTACGGAGTCACCTAGTGCAG” was tested. Which binding signal did it give?
Its binding signal is 5300 fluorescence intensity (a.u.).

“AAAATTAACATGGTAAATTAATATGATATATATCACTCTACGGAGTCACCTAGTGCAG” was tested. Which binding signal did it give?
Its binding signal is 24400 fluorescence intensity (a.u.).

Which binding signal does the source give for “GGTAGATTGGCCGGAACAAAGCGAAGAAAAGGTGGCCTCACGGAGTCACCTAGTGCAG” here?
Its binding signal is 22800 fluorescence intensity (a.u.).

How did the binding signal turn out when “ATTTGTCAATTGATAGATCTGCTCCTCATCCAAGCTCCATCGGAGTCACCTAGTGCAG” was run?
The binding signal was 24900 fluorescence intensity (a.u.).

Which binding signal does the source give for “GACGAATATATTATACCTAATTACTCTTCTATTATTTGATCGGAGTCACCTAGTGCAG” here?
Its binding signal is 3590 fluorescence intensity (a.u.).

With “CATGATTAATTTTAGGCCGGTCATTGCTCGTGTCCTTGTTCGGAGTCACCTAGTGCAG” as the sequence, how does the binding signal read?
Its binding signal is 65300 fluorescence intensity (a.u.).

With “AATTAATCCATTATTAACAAATGTTTACTGTAGCATCACACGGAGTCACCTAGTGCAG” as the sequence, how does the binding signal read?
The binding signal was 5300 fluorescence intensity (a.u.).

For “CCCCTACCAGATGATTTGTCTTGCTTTGTATTAATGGGTGCGGAGTCACCTAGTGCAG”, which binding signal is on record?
The binding signal was 4790 fluorescence intensity (a.u.).

With “CTAACCGTCCATTGATTAGCTAGCTAACTTAGAGATAGATCGGAGTCACCTAGTGCAG” as the sequence, how does the binding signal read?
Its binding signal is 34100 fluorescence intensity (a.u.).

For “TGAAAGCATGATCTAGATAATTTATGTGCTACACAATTTGCGGAGTCACCTAGTGCAG”, which binding signal is on record?
Its binding signal is 3300 fluorescence intensity (a.u.).

“GGTAAGATTTGTCAGCTTAATTTGTCTATCTGCATATTAGCGGAGTCACCTAGTGCAG” was tested. Which binding signal did it give?
The binding signal was 16200 fluorescence intensity (a.u.).

With “GAAAACATACAAATTAACTCAAGAAATGGCCAAATTAAAGCGGAGTCACCTAGTGCAG” as the sequence, how does the binding signal read?
The binding signal was 10700 fluorescence intensity (a.u.).

With “AAGCAAATGATAATTATTGCAAGTTCCTAACAAAATATTGCGGAGTCACCTAGTGCAG” as the sequence, how does the binding signal read?
Its binding signal is 5850 fluorescence intensity (a.u.).

Which binding signal does the source give for “ATGATAGATTTAGATGAAGTTTAACTTGGAATAGCCATACCGGAGTCACCTAGTGCAG” here?
The binding signal was 44200 fluorescence intensity (a.u.).

For “ATGTAAGATGGTAATAGTAGATTGAAGATGCACCACAATGCGGAGTCACCTAGTGCAG”, which binding signal is on record?
Its binding signal is 4350 fluorescence intensity (a.u.).

For “TTGCGCAAATTAATCTTTCTAGAAATCAAAGGGCTCAGGGCGGAGTCACCTAGTGCAG”, which binding signal is on record?
The binding signal was 4600 fluorescence intensity (a.u.).

For “TTAAATTTGTAGTTTTGTGATGTCAAAATACATGTAATTTCGGAGTCACCTAGTGCAG”, which binding signal is on record?
The binding signal was 16900 fluorescence intensity (a.u.).

With “CAATAGATTTGGTCTAAATTTAGTTAAAATTTATCGAAAACGGAGTCACCTAGTGCAG” as the sequence, how does the binding signal read?
The binding signal was 11400 fluorescence intensity (a.u.).

How did the binding signal turn out when “ACTAATTAGAAGTACTAAATAGAGACTAATGATAAAACCCCGGAGTCACCTAGTGCAG” was run?
Its binding signal is 36100 fluorescence intensity (a.u.).

For “CCAATTAGATGAGTTAGGTAAGTGATAAAGCATTCGTAACCGGAGTCACCTAGTGCAG”, which binding signal is on record?
Its binding signal is 3220 fluorescence intensity (a.u.).

Which binding signal does the source give for “GTACTAATTATGTACTCAGGTTTGGAAGTAGAGTCTACGTCGGAGTCACCTAGTGCAG” here?
Its binding signal is 26000 fluorescence intensity (a.u.).

How did the binding signal turn out when “TGAAAATTTATAGAGGACAAATGGGTGGACATATATAGGGCGGAGTCACCTAGTGCAG” was run?
The binding signal was 3270 fluorescence intensity (a.u.).

With “AACACACTCAGTTAAATTGGCACTATTTTATCAGCTCATTCGGAGTCACCTAGTGCAG” as the sequence, how does the binding signal read?
Its binding signal is 3850 fluorescence intensity (a.u.).

How did the binding signal turn out when “GTTGATTATAGATGATTTCAAGCCAACAGTTGGCTATAGGCGGAGTCACCTAGTGCAG” was run?
The binding signal was 35100 fluorescence intensity (a.u.).

How did the binding signal turn out when “TTTTATGATTAGTATTTTCATTGTTGTTAAATGATAAAACCGGAGTCACCTAGTGCAG” was run?
Its binding signal is 23800 fluorescence intensity (a.u.).

How did the binding signal turn out when “GTAGATGATTAATTTAGAATGGAGGGAGTAGAAGCTAAGACGGAGTCACCTAGTGCAG” was run?
Its binding signal is 24300 fluorescence intensity (a.u.).

Which binding signal does the source give for “TGCTCCAACGTAATTTGTTCCAAGTGTCTCTGCTCTTCAGCGGAGTCACCTAGTGCAG” here?
Its binding signal is 3150 fluorescence intensity (a.u.).

Which binding signal does the source give for “CCCGTCCCTAATTAACCGCCGTTCCTCTCGCGCCTCACCACGGAGTCACCTAGTGCAG” here?
Its binding signal is 12500 fluorescence intensity (a.u.).

With “GTTGAGGAATTGATTATAAACGTAGAGGAATAACAATGGACGGAGTCACCTAGTGCAG” as the sequence, how does the binding signal read?
The binding signal was 13800 fluorescence intensity (a.u.).

With “TTTAAAATTAGATAAATTTTAGCTGCGGCTGACAACACGACGGAGTCACCTAGTGCAG” as the sequence, how does the binding signal read?
Its binding signal is 9360 fluorescence intensity (a.u.).
